Laboratory results published in the supplement of paper PMC10126150.
Values marked as one replicate rest on one cluster of the flow cell; about a third of the high ones do not repeat.

Test system: ATP
Assay: switch fluorescence ratio, 500 uM ATP over buffer (Cy3 cluster intensity, sum of 5 cycles each) (fold (ratio)); higher = stronger signal-on switching upon ATP binding; sequences stand for … in TCGTCGGCAGCGTCAGATGTGTATAAGAGACAGTTTTTTTTTTTTTTTTTTTTTTTTT…TC
Settings: aptamer strand: ATP DNA aptamer (quencher-CACCTGGGGGAGTATTGCGGAGGAAGG + anchor), 100 nM annealed; ATP concentration: 500 uM; one replicate
Summary of the method: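 Imaging in selection buffer was followed by imaging after 15 min with 500 uM ATP at 22 °C, for Cy3-labelled switching-strand clusters annealed to 100 nM quencher-labelled ATP aptamer on a modified Illumina MiSeq flow-cell. Five of these buffer/ATP cycles ran, separated by NaOH stripping and re-annealing. The fluorescence ratio per cluster is summed target-cycle over summed buffer-cycle Cy3 intensity, averaged per switch-domain sequence; clusters outside 100-1000 RFU were removed.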
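Also: ATP exposure 15 min at 22 °C before imaging.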

| Sequence | switch fluorescence ratio |
| --- | --- |
| CTCCGTCCAG | 2.54 |
| CGACGTGTAT | 0.99 |
| ACTCACGAGC | 1.35 |
| TAACGCCATT | 1.06 |
| CTACTCGTCG | 0.998 |
| GATCGGGATT | 0.961 |
| CTGGGGGGAC | 1.62 |
| GTGGACGGGA | 1.01 |
| AGATACTGCG | 1.06 |
| TCTCATGGGT | 0.976 |
| TCCACACCAA | 1.32 |
| CGGTAATTAT | 1 |
| CTTAAGTATG | 1.04 |
| CAAACTTGTT | 0.961 |
| GGGATCTCCT | 0.975 |
| TGTTAAGCGG | 0.936 |
| AGATATGCCC | 1 |
| TTCTTTCAGT | 0.909 |
| GCCGTGGGGT | 1.02 |
| TGGGCACGAA | 1.02 |
| TACCCCCGA | 1.85 |
| AGTAAGGGG | 1.02 |
| TGCTCGTCC | 0.984 |

| Sequence | switch fluorescence ratio |
| --- | --- |
| ACCGAATTTT | 1.12 |
| CTGATTGAGG | 0.975 |
| ACGCCCAATC | 4.47 |
| GGCGACGGCG | 1.01 |
| GAGTTGAGAA | 0.993 |
| TTTATAATGC | 1.1 |
| GTAGTAACCT | 1.69 |
| TAGTTATTT | 1.01 |
| CAAGGGGCCC | 0.986 |
| TGAAAAAC | 1.08 |
| TCTGAGTGCT | 0.942 |
| ACTCTTGGT | 0.993 |
| ATCAATTGCG | 1.04 |
| CCTCGTCGCG | 1.03 |
| TCTGAACATT | 0.995 |
| AGTTCGCTA | 1.08 |
| ATAGCAACGG | 1.04 |
| GTTAGCTCTC | 1.01 |
| TCGGCGTGT | 1.06 |
| AGAAAGGCCC | 0.954 |
| TCTGCCACTC | 1.17 |
| ACAATATGCC | 1.1 |
| CAATATAGG | 1 |

| Sequence | switch fluorescence ratio |
| --- | --- |
| GCTTCTTGCA | 0.961 |
| ATTTAGATTA | 0.992 |
| GGTTGAAGTC | 0.998 |
| GAGAGGCAGT | 1.01 |
| TGTAAAGGAC | 1.04 |
| GTGGCAACGG | 0.967 |
| AGTGGAGTGC | 1.09 |
| GGCCCAGGTC | 2.14 |
| GTTGAAATGG | 0.979 |
| AGATGGCACC | 1.04 |
| TGAGATAATT | 1.04 |
| CCGTCAGGAG | 1.01 |
| GCCCTGATCT | 1.05 |
| TGGCATGATG | 1.01 |
| ACTCAACGCG | 1.07 |
| TCCGTAACGG | 1.06 |
| TATATTCAA | 0.995 |
| TTAAAATTAC | 1.11 |
| CAAGTACAGT | 1.19 |
| GATTCGGATT | 1.01 |
| AGTGTTGAGC | 1.04 |
| TCGGTGCCGT | 1.02 |
| CCCTGAGAGG | 1.03 |

| Sequence | switch fluorescence ratio |
| --- | --- |
| CTAGTGTTGT | 0.958 |
| TGTGGTCGGA | 0.983 |
| TTTAAGCGCA | 1.07 |
| ATCACCGAAG | 1.05 |
| TTGCGTCACC | 1.01 |
| AAGCTACTTG | 1.1 |
| AGCGAAGGAC | 1.1 |
| AGGAGGAGCA | 0.938 |
| AACATTATGG | 1.04 |
| ACGAATTTGG | 0.97 |
| GTATCAGAAT | 0.986 |
| TACGTATAAG | 1.04 |
| GGGTACTTGA | 1.05 |
| ACCTTGTGAC | 1.24 |
| GGGTCACATC | 1.02 |
| GGTCATTCTT | 1.03 |
| CAGCAGTACA | 2.85 |
| TAGGGGGGA | 1 |
| AGTCAGCG | 0.99 |
| GATTCAGTT | 1.03 |
| ATATCACTAA | 1.04 |
| TACATTCCT | 1.61 |
| TATGTAAGT | 0.955 |

| Sequence | switch fluorescence ratio |
| --- | --- |
| TCATGACCTA | 1.02 |
| ACCACGGATT | 1.11 |
| TTGTATCAAA | 0.977 |
| CGGAGTCGAG | 0.983 |
| CAGGTTTGCC | 1.04 |
| AGAGGCGCAT | 1 |
| ACTTTGAAGA | 1.01 |
| CCGCTTGGAT | 1.18 |
| TGGGATCTTA | 1.01 |
| TCTGTTCAAG | 1.01 |
| TTGCGTCTT | 0.984 |
| TAAGCTAGGG | 0.989 |
| CACCCGGATG | 1.66 |
| ATGTCTAGAG | 0.967 |
| CCAACAGGCG | 2.06 |
| ACTAATATCA | 1.05 |
| CTTCATTCAG | 1.01 |
| TGGATGGTAT | 1.01 |
| CCCGATGGGA | 0.951 |
| GTTGCGTTAC | 1.49 |
| GCGTTTGGTG | 0.979 |
| GTCCTCAATT | 1.12 |
| AGGACGTAAG | 0.96 |

| Sequence | switch fluorescence ratio |
| --- | --- |
| TCGATGCTTT | 1.02 |
| CGCGAGCGCC | 1.05 |
| GCTTGAAATA | 1.05 |
| ATTACGACGA | 1.15 |
| TATTCAATCT | 1.02 |
| GTGGAAGGGA | 0.984 |
| CGCGGTAACT | 1.36 |
| CATCTCCAGT | 1.03 |
| CAATGCAATA | 3.54 |
| TTTCTCTGGA | 1.08 |
| TAAGGGGCTG | 1.01 |
| CCAAGGCGGA | 1.04 |
| TCGTAGACAG | 0.954 |
| TGATCCGTAC | 1.73 |
| TGAAATGTCG | 0.932 |
| AGCCTAATGA | 0.97 |
| TCTCTACCGA | 1.05 |
| TCGGCTGATC | 0.992 |
| TAGAGAGCTA | 1.1 |
| TTGGTCTAGT | 1 |
| TATATGACAA | 1.02 |
| GCTGGGATCA | 0.937 |
| TAATATATTC | 0.97 |

| Sequence | switch fluorescence ratio |
| --- | --- |
| TTCTAGTGGT | 0.964 |
| AGCAGTTAAA | 0.978 |
| CCGCACTTCC | 1.73 |
| CGACGACTTA | 1.16 |
| AGATGTATGA | 0.979 |
| TGGAAATGGA | 0.987 |
| ATCACTTTGA | 1.01 |
| GGGGCAGTTC | 1.05 |
| ATTTGTGTAA | 0.996 |
| CTAATCTGGG | 0.981 |
| GAGATTATAC | 0.976 |
| TTATTATTAT | 0.995 |
| GATGATGTGG | 1 |
| GCTCATTTGG | 0.945 |
| AGCAGACTTC | 1.07 |
| TGGATTAAGA | 1.01 |
| CCATGATAGG | 1.03 |
| TTTGACCTAA | 1.04 |
| TTCCTGAATT | 2.24 |
